# Assay results: the supplement of paper PMC8728848
# This is one part of the list.
# Experiments:
# Assay in all cases: glycan array binding signal (z-score within array); higher = stronger binding
# Settings in all cases: glycan notation: IUPAC condensed, linker removed
# [1] = biological target: Fuc(a1-2)[GalNAc(a1-3)]Gal(b1-4)GlcNAc(b1-3)Gal(b1-4)GlcNAc
# Procedure, shortened: (§1)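 Glycan array data came from 3228 arrays in the Consortium for Functional Glycomics database, and only arrays with an available protein sequence were kept. Glycan names were put into IUPAC-condensed notation, and columns mapping to the same glycan were averaged. The binding signal is a within-array Z-score, averaged across arrays of one protein sequence run at different concentrations or buffers and across linkers. A negative Z-score can be read as non-binding.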
# [2] = biological target: Fuc(a1-2)[GalNAc(a1-3)]Gal(b1-4)GlcNAc(b1-3)Gal(b1-4)GlcNAc(b1-3)Gal(b1-4)GlcNAc
# Procedure, shortened: as §1
# [3] = biological target: Fuc(a1-2)[GalNAc(a1-3)]Gal(b1-4)GlcNAc(b1-3)GalNAc
# Procedure, shortened: as §1
# [4] = biological target: Fuc(a1-2)[GalNAc(a1-3)]Gal(b1-4)[Fuc(a1-3)]GlcNAc
# Procedure, shortened: as §1
# [5] = biological target: Fuc(a1-2)[GalNAc(a1-3)]Gal(b1-4)[Fuc(a1-3)]GlcNAc(b1-3)GalNAc
# Procedure, shortened: as §1
# [6] = biological target: Fuc(a1-2)[GalNAc(a1-4)]Gal(b1-4)GlcNAc
# Procedure, shortened: as §1
# [7] = biological target: Fuc(a1-2)[GalNAc(b1-3)]Gal
# Procedure, shortened: as §1
# Fuc(a1-3)GlcNAc = biological target: Fuc(a1-3)GlcNAc
# Procedure, shortened: as §1
# [8] = biological target: Fuc(a1-3)[Gal(b1-4)]Glc6S
# Procedure, shortened: as §1
# [9] = biological target: Fuc(a1-3)[Gal(b1-4)]GlcNAc
# Procedure, shortened: as §1
# [10] = biological target: Fuc(a1-3)[Gal(b1-4)]GlcNAc(b1-2)Man
# Procedure, shortened: as §1
# [11] = biological target: Fuc(a1-3)[Gal(b1-4)]GlcNAc(b1-2)Man(a1-3)[Fuc(a1-3)[Gal(b1-4)]GlcNAc(b1-2)Man(a1-6)]Man(b1-4)GlcNAc(b1-4)GlcNAc
# Procedure, shortened: as §1
# [12] = biological target: Fuc(a1-3)[Gal(b1-4)]GlcNAc(b1-2)Man(a1-3)[Fuc(a1-3)[Gal(b1-4)]GlcNAc(b1-2)Man(a1-6)]Man(b1-4)GlcNAc(b1-4)[Fuc(a1-6)]GlcNAc
# Procedure, shortened: as §1
# [13] = biological target: Fuc(a1-3)[Gal(b1-4)]GlcNAc(b1-3)Gal(b1-3)[Fuc(a1-4)]GlcNAc
# Procedure, shortened: as §1
# [14] = biological target: Fuc(a1-3)[Gal(b1-4)]GlcNAc(b1-3)GalNAc
# Procedure, shortened: as §1
# [15] = biological target: Fuc(a1-3)[Gal(b1-4)]GlcNAc(b1-4)Gal(b1-4)[Fuc(a1-3)]GlcNAc
# Procedure, shortened: as §1
# [16] = biological target: Fuc(a1-3)[Gal(b1-4)]GlcNAc(b1-4)Gal(b1-4)[Fuc(a1-3)]GlcNAc(b1-4)Gal(b1-4)[Fuc(a1-3)]GlcNAc
# Procedure, shortened: as §1
# [17] = biological target: Fuc(a1-3)[Gal(b1-4)]GlcNAc(b1-6)GalNAc
# Procedure, shortened: as §1
# [18] = biological target: Fuc(a1-3)[Gal(b1-4)]GlcNAc(b1-6)[Gal(b1-3)GlcNAc(b1-3)]Gal(b1-4)Glc
# Procedure, shortened: as §1
# [19] = biological target: Fuc(a1-3)[Gal(b1-4)]GlcNAc(b1-6)[Neu5Ac(a2-3)Gal(b1-3)]GalNAc
# Procedure, shortened: as §1
# [20] = biological target: Fuc(a1-3)[Gal(b1-4)]GlcNAc6S
# Procedure, shortened: as §1
# [21] = biological target: Fuc(a1-3)[Gal3S(b1-4)]GlcNAc
# Procedure, shortened: as §1
# [22] = biological target: Fuc(a1-3)[Gal3S(b1-4)]GlcNAc6S
# Procedure, shortened: as §1
# [23] = biological target: Fuc(a1-3)[GalNAc(b1-4)]GlcNAc
# Procedure, shortened: as §1
# [24] = biological target: Fuc(a1-3)[GalNAc(b1-4)]GlcNAc6S
# Procedure, shortened: as §1
# [25] = biological target: Fuc(a1-3)[GalNAc3S(b1-4)]GlcNAc
# Procedure, shortened: as §1
# Fuc(a1-4)GlcNAc = biological target: Fuc(a1-4)GlcNAc
# Procedure, shortened: as §1
# Fuc(b1-3)GlcNAc = biological target: Fuc(b1-3)GlcNAc
# Procedure, shortened: as §1
# Gal(a1-2)Gal = biological target: Gal(a1-2)Gal
# Procedure, shortened: as §1
# Gal(a1-3)Gal = biological target: Gal(a1-3)Gal
# Procedure, shortened: as §1
# Gal(a1-3)Gal(b1-3)GlcNAc = biological target: Gal(a1-3)Gal(b1-3)GlcNAc
# Procedure, shortened: as §1
# [26] = biological target: Gal(a1-3)Gal(b1-3)GlcNAc(b1-2)Man(a1-3)[Gal(a1-3)Gal(b1-3)GlcNAc(b1-2)Man(a1-6)]Man(b1-4)GlcNAc(b1-4)GlcNAc
# Procedure, shortened: as §1
# [27] = biological target: Gal(a1-3)Gal(b1-3)GlcNAc(b1-3)GalNAc
# Procedure, shortened: as §1
# [28] = biological target: Gal(a1-3)Gal(b1-3)GlcNAc(b1-6)GalNAc
# Procedure, shortened: as §1
# [29] = biological target: Gal(a1-3)Gal(b1-3)[Fuc(a1-4)]GlcNAc(b1-2)Man(a1-3)[Gal(a1-3)Gal(b1-3)[Fuc(a1-4)]GlcNAc(b1-2)Man(a1-6)]Man(b1-4)GlcNAc(b1-4)GlcNAc
# Procedure, shortened: as §1
# Gal(a1-3)Gal(b1-4)Glc = biological target: Gal(a1-3)Gal(b1-4)Glc
# Procedure, shortened: as §1
# Gal(a1-3)Gal(b1-4)GlcNAc = biological target: Gal(a1-3)Gal(b1-4)GlcNAc
# Procedure, shortened: as §1
# [30] = biological target: Gal(a1-3)Gal(b1-4)GlcNAc(b1-3)GalNAc
# Procedure, shortened: as §1
# [31] = biological target: Gal(a1-3)Gal(b1-4)GlcNAc(b1-6)GalNAc
# Procedure, shortened: as §1
# [32] = biological target: Gal(a1-3)Gal(b1-4)[Fuc(a1-3)]GlcNAc
# Procedure, shortened: as §1
# [33] = biological target: Gal(a1-3)Gal(b1-4)[Fuc(a1-3)]GlcNAc(b1-2)Man(a1-3)[Gal(a1-3)Gal(b1-4)[Fuc(a1-3)]GlcNAc(b1-2)Man(a1-6)]Man(b1-4)GlcNAc(b1-4)GlcNAc
# Procedure, shortened: as §1
# Gal(a1-3)GalNAc = biological target: Gal(a1-3)GalNAc
# Procedure, shortened: as §1
# [34] = biological target: Gal(a1-3)[Gal(a1-4)]Gal(b1-4)GlcNAc
# Procedure, shortened: as §1
# [35] = biological target: Gal(a1-4)Gal(b1-3)GlcNAc(b1-2)Man(a1-3)[Gal(a1-4)Gal(b1-3)GlcNAc(b1-2)Man(a1-6)]Man(b1-4)GlcNAc(b1-4)GlcNAc
# Procedure, shortened: as §1
# Gal(a1-4)Gal(b1-4)Glc = biological target: Gal(a1-4)Gal(b1-4)Glc
# Procedure, shortened: as §1
binder,measurement,setting,value
SalT (Orysata sativa) (protein) MTLVKIGLWGGNGGSAQDISVPPKKLLGVTIYSSDAIRSIAFNYIGVDGQEYAIGPWGGGEGTSTEIKLGSSEHIKEISGTHGPVYDLADIVTYLKIVTSANNTYEAGVPNGKEFSIPLQDSGHVVGFFGRSGTLIDAIGIYVHPILEQKLISEEDLNSAVDHHHHHH,glycan array binding signal (z-score),[1],-0.307
same,glycan array binding signal (z-score),[2],-0.307
same,glycan array binding signal (z-score),[3],-0.305
same,glycan array binding signal (z-score),[4],-0.308
same,glycan array binding signal (z-score),[5],-0.303
same,glycan array binding signal (z-score),[6],-0.308
same,glycan array binding signal (z-score),[7],-0.31
same,glycan array binding signal (z-score),Fuc(a1-3)GlcNAc,-0.306
same,glycan array binding signal (z-score),[8],-0.303
same,glycan array binding signal (z-score),[9],-0.308
same,glycan array binding signal (z-score),[10],-0.291
same,glycan array binding signal (z-score),[11],1.34
same,glycan array binding signal (z-score),[12],-0.296
same,glycan array binding signal (z-score),[13],-0.309
same,glycan array binding signal (z-score),[14],-0.301
same,glycan array binding signal (z-score),[15],-0.306
same,glycan array binding signal (z-score),[16],-0.308
same,glycan array binding signal (z-score),[17],-0.302
same,glycan array binding signal (z-score),[18],-0.31
same,glycan array binding signal (z-score),[19],-0.306
same,glycan array binding signal (z-score),[20],-0.307
same,glycan array binding signal (z-score),[21],-0.309
same,glycan array binding signal (z-score),[22],-0.303
same,glycan array binding signal (z-score),[23],-0.306
same,glycan array binding signal (z-score),[24],-0.305
same,glycan array binding signal (z-score),[25],-0.308
same,glycan array binding signal (z-score),Fuc(a1-4)GlcNAc,-0.308
same,glycan array binding signal (z-score),Fuc(b1-3)GlcNAc,-0.312
same,glycan array binding signal (z-score),Gal(a1-2)Gal,-0.308
same,glycan array binding signal (z-score),Gal(a1-3)Gal,-0.309
same,glycan array binding signal (z-score),Gal(a1-3)Gal(b1-3)GlcNAc,-0.305
same,glycan array binding signal (z-score),[26],0.177
same,glycan array binding signal (z-score),[27],-0.307
same,glycan array binding signal (z-score),[28],-0.311
same,glycan array binding signal (z-score),[29],0.535
same,glycan array binding signal (z-score),Gal(a1-3)Gal(b1-4)Glc,-0.309
same,glycan array binding signal (z-score),Gal(a1-3)Gal(b1-4)GlcNAc,-0.311
same,glycan array binding signal (z-score),[30],-0.309
same,glycan array binding signal (z-score),[31],-0.302
same,glycan array binding signal (z-score),[32],-0.302
same,glycan array binding signal (z-score),[33],0.155
same,glycan array binding signal (z-score),Gal(a1-3)GalNAc,-0.308
same,glycan array binding signal (z-score),[34],-0.301
same,glycan array binding signal (z-score),[35],3.59
same,glycan array binding signal (z-score),Gal(a1-4)Gal(b1-4)Glc,-0.308
